# Experimental data published in PMC4336329 (PLoS ONE, 2015).
# In all, about 310,000 compounds went through this assay and about 2,200 (0.71%) showed an effect of 50% or more. Effects have a minus sign here. The list shows a part of the results.
# Target: human ether-à-go-go-related gene (hERG) potassium channel (human, UniProt Q12809)
# Assay: primary screen, population patch clamp on CHO cells stably expressing hERG
# Sequence of human ether-à-go-go-related gene (hERG) potassium channel (Q12809 whole entry, looked up): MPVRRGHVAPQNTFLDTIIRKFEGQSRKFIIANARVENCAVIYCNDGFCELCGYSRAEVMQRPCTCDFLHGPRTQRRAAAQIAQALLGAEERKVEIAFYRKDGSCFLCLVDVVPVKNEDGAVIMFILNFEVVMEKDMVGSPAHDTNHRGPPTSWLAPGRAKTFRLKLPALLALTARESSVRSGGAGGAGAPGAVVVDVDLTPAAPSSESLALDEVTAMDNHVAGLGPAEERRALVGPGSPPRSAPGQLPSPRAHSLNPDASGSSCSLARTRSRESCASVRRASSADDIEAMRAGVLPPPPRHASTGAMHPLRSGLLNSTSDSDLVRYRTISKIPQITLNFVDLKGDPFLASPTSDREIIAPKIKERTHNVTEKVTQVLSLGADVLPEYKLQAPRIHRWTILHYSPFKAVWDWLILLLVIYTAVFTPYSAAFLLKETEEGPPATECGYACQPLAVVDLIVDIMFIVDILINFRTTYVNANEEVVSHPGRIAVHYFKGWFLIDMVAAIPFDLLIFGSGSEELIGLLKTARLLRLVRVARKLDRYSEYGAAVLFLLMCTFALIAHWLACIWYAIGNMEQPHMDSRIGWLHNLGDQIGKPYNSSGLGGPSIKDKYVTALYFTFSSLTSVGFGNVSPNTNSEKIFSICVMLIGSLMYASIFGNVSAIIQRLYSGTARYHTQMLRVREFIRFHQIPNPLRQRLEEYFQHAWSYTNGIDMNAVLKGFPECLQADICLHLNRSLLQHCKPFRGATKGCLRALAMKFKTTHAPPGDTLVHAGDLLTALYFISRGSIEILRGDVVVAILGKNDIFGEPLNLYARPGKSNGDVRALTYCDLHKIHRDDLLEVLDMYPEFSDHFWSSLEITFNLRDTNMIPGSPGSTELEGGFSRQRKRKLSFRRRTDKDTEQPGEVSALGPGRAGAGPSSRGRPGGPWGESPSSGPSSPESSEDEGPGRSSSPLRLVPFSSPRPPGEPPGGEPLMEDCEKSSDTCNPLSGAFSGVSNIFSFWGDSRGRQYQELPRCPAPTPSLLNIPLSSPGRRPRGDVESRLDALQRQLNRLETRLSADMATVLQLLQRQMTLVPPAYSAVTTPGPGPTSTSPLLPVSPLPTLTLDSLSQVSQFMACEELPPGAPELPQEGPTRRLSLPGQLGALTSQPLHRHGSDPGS
row,SMILES,"hERG current change (%, negative = inhibition) at 1uM [%]"
1,O=[N+]([O-])c1ccccc1SNc1ccc(Br)cn1,18.4
2,O=[N+]([O-])c1ccc(O)c(C2=NNC(c3ccccc3F)C2)c1 (centres unmarked),3
3,O=C(c1ccc(OCC[NH+]2CCCCC2)cc1)c1c(-c2ccc(O)cc2)sc2cc(O)ccc12.[Cl-],9.06
4,c1ccc(COc2ccccc2CNc2nn[nH]n2)cc1,13
5,COc1cc(C)c(Br)cc1S(=O)(=O)NCCN1CCOCC1,13.3
6,COc1cc(C(C)=O)ccc1Oc1ncnc2c1cnn2-c1ccccc1,5.49
7,CCOc1[nH]n(-c2ccccc2)c(=O)c1C=Nc1ccc(F)cc1F,14.8
8,O=C(NCC1CCCO1)c1csc(Nc2cccc3ccccc23)n1 (centres unmarked),-2.49
9,CC(C)CNC(=S)NNC(=O)c1ccco1,-18.3
10,CC1CCN(c2ccc([N+](=O)[O-])cc2C(=O)N2CCOCC2)CC1,8.6
11,O=c1c2ccccc2[nH]c(=S)n1CCC1=CCCCC1,13.4
12,CCOC(=O)N1CCC(NC(=O)c2ccc3c(c2)ncn3C2CCCC2)CC1,5.91
13,Cc1ccc(C2=NN(C(=O)CN3C(=O)c4ccccc4S3(=O)=O)C(c3ccco3)C2)cc1 (centres unmarked),6.24
14,COC(=O)c1cc(NC(=O)c2ccc(OC)cc2)c(=O)oc1C,14
15,CC[C@@]1(c2ccccc2)C(=O)N(C(=O)OC)N1C(=O)OC,19.7
16,COc1ccc(N2C(=O)NC(=O)/C(=C/c3cccc(OC(=O)c4cccs4)c3)C2=O)cc1Cl,12
17,Cn1c(N)c(C(=O)COC(=O)CCCN2C(=O)c3ccccc3C2=O)c(=O)n(C)c1=O,3.78
18,Cc1c(C(=O)NCCCN2CCCC2=O)oc2ccccc12,0.304
19,Cn1cc(CN2CCC(CO)(CCCc3ccccc3)CC2)c(-c2ccccc2)n1,-33.6

row,SMILES,"hERG current change (%, negative = inhibition) at 1uM [%]"
1,CCC(C)(C)NC(=O)CN(C(=O)c1snc(C(N)=O)c1N)c1ccc2c(c1)OCCO2,13.1
2,CC(=O)c1cccn1S(=O)(=O)c1ccccc1,2.43
3,O=C(NCCc1ccc(Cl)cc1)c1ccc2nc(N3CCOCC3)sc2c1,11.9
4,NC(=O)c1ccc(NC(=O)COc2cccc3ccccc23)cc1,18.2
5,COc1ccccc1C(=O)OCC(=O)N1CCC(Cc2ccccc2)CC1,9.62
6,NS(=O)(=O)c1ccc(NC(=O)COC(=O)C23CC4CC(CC(C4)C2)C3)cc1,9.84
7,COc1cccc(C(=O)Oc2cc(N)n(S(=O)(=O)c3ccc(C)cc3)n2)c1OC,7.27
8,O=C(Nc1ccc(O)cc1)c1cccc(Oc2ccc([N+](=O)[O-])cc2)c1,11.4
9,Cc1cc(-c2nnc3n2N=C(c2ccc(F)cc2)CS3)n[nH]1,-11.5
10,Cn1cc(-c2cccc(Cl)c2)cc(C#N)c1=O,-1.86
11,O=C(CCc1ccccc1Cl)Nc1ccc(S(=O)(=O)N2CCOCC2)cc1,8.24
12,N/C(=N\OC(=O)c1cc(Cl)ccc1Cl)c1ccncc1,3.11
13,COc1nc(C)ccc1-c1noc(-c2ccco2)n1,11.3
14,CCn1c(CNC(=O)COc2ccc(C(C)C)cc2)nnc1SCC(=O)Nc1ccccc1,-7.27
15,Cc1ccc(C2(C)NC(=O)N(CC(=O)N3CCN(S(=O)(=O)c4cccc(F)c4)CC3)C2=O)cc1 (centres unmarked),-18.1
16,CC1CC(C)CN(S(=O)(=O)c2cccc(C(=O)OCCN3CCCC3=O)c2)C1 (centres unmarked),1.63
17,COc1ccc(-n2c(C)c3c(OC)cccc(=O)c3c2C)cc1,0.316
18,Brc1ccc(-c2nc(-c3ccccc3)no2)o1,12.8
19,C=CCOc1cccc(C2C(C(=O)c3ccco3)=C(O)C(=O)N2CCN(CC)CC)c1 (centres unmarked),5.68

row,SMILES,"hERG current change (%, negative = inhibition) at 1uM [%]"
1,CCn1cc(C(=O)NCCOC)c(=O)c2ccc(C)nc21,7.87
2,CC(=O)n1nc(-c2ccco2)nc1SCc1ccccc1,6.39
3,CC(=O)Nc1ccc(Nc2cc(C)nc3c(-c4ccccc4)cnn23)cc1,19
4,COC(=O)c1ccc(CN2CCN(Cc3ccccc3)C(CCO)C2)cc1 (centres unmarked),2.22
5,O=C(CSc1nnc(-c2ccccc2Cl)n1Cc1ccco1)Nc1ccc2c(c1)OCCO2,9.49
6,CC1=C(C(=O)OCCOC(C)C)C(c2cc3c(cc2Br)OCO3)CC(=O)N1 (centres unmarked),18.3
7,CN1C(=O)C2(C(C#N)=C(N)N(c3ccc(Cl)cc3)C3=C2C(=O)CC(C)(C)C3)c2ccccc21 (centres unmarked),6.2
8,COc1ccc(-c2cc(C(=O)NCC3CCCO3)c3ccccc3n2)cc1 (centres unmarked),-6.42
9,CCOC(=O)C1CCN(C(=O)c2c(-c3ccccc3)noc2C)CC1,8.08
10,O=C(CNC(=O)c1ccco1)NCC(=O)OCc1ccccc1Br,4.57
11,O=C(Nc1ccc(Cl)cn1)c1cccc(S(=O)(=O)N2CCOCC2)c1,-42.5
12,COc1ccc(NC(=O)c2ccco2)c(OC)c1,11.3
13,Cc1cc(C)c(O)c(-c2cc(C(=O)NCc3ccccc3)[nH]n2)c1,10.3
14,CC(OC(=O)Cn1[nH]c(=O)c2ccccc2c1=O)C(=O)Nc1ccc(F)cc1 (centres unmarked),4.55
15,O=C(CSCc1ccc(F)cc1)Nc1ccc(F)cc1,11
16,CCN(C(=O)CSc1nc(-c2ccccc2)c(-c2ccccc2)[nH]1)C1CCS(=O)(=O)C1 (centres unmarked),5.3
17,C/C(=N\NC(=O)c1ccccc1F)c1ccccn1,6
18,COc1ccc(/C=N/Nc2cc(C)nc(N3CCOCC3)n2)cc1,12.3
